Results taken from publication PMC6919601, “Identification of Plasmodium dipeptidyl aminopeptidase allosteric inhibitors by high throughput screening” (PLoS ONE, 2019).
Among all 110,000 compounds or so, about 230 (0.21%) showed an effect of 50% or more. The list shows a part of the results.

Molecular target: DPAP1 (Plasmodium falciparum, UniProt Q8IIJ9)
Assay: primary screen, percent inhibition; read by cleavage of a fluorogenic dipeptide substrate; higher = more effect of the substance
Parameters: species or system P. falciparum D10 trophozoite lysates; single well
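Also: 30 min substrate incubation versus DMSO and 10 µM JCP410 controls.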

DPAP1, sequence (Q8IIJ9 whole entry, looked up): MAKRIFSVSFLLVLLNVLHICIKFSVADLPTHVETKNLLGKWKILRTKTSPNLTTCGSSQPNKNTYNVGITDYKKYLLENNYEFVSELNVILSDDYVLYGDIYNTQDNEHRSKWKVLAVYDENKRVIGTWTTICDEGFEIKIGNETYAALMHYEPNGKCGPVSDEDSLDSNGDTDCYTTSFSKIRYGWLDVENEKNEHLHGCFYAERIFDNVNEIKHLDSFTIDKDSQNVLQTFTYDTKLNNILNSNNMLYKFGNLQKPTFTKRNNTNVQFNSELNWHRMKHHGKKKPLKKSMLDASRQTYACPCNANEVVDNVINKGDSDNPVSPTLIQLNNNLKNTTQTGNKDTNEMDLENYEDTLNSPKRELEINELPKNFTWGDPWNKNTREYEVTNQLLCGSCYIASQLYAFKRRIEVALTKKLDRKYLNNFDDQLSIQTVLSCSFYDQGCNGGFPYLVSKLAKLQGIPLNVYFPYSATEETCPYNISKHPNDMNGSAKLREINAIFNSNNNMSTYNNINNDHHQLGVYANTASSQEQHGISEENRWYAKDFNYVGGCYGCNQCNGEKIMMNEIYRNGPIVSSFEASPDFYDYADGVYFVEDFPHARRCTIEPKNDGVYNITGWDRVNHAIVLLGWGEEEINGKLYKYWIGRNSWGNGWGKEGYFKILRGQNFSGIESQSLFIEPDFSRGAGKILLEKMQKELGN

Compared with O=C(O)CC(c1ccccc1)N1C(=O)c2ccccc2C1=O (centres unmarked), CCOC(=O)c1[nH]c2ccccc2c1NC(=O)CSCc1ccccc1 is higher in “% Inhibition @ 10 uM” value: -11.5% for the first, 1.5% for the second.

Going from CCOc1ccccc1NC(=O)COc1ccc(C)cc1 to Cc1ccc(OCC(=O)Nc2ccc(S(=O)(=O)Nc3ccc(C)cc3C)cc2)cc1, the “% Inhibition @ 10 uM” value falls from 1.59% to -5.92%.

First: CC(C)(C)C[C@H](N[C@@H](c1ccc(F)cc1)C(F)(F)Sc1ccc(F)cc1)C(=O)NC1(C#N)CC1
Second: CNC(=O)C1CC(=O)N(Cc2ccc(F)cc2)/C(=N/c2cccc(C(F)(F)F)c2)S1 (centres unmarked)
The “% Inhibition @ 10 uM” value of the first is higher: -3.14% for the first, -6.27% for the second.

Compared with Clc1nc2c(-c3ccccc3)nnn2c2ccccc12, Brc1ccc(OCc2nnnn2-c2ccccc2)cc1 is higher in “% Inhibition @ 10 uM” value: -3.48% for the first, -1.11% for the second.

Going from CCN(CC)CCN(C)CCC1=C(C)CCCC1(C)C to CCCCN(C)CCNC(=O)c1cc2cc3ccc(C)cc3nc2o1, the “% Inhibition @ 10 uM” value falls from 1.37% to -1.54%.

First: O=C(CN(CCc1ccccc1)S(=O)(=O)c1ccccc1)N1CCOCC1
Second: O=C(NCCc1ccccc1)C1CCN(C(=O)c2ccc(-n3ccc4ccccc43)s2)CC1
The “% Inhibition @ 10 uM” value of the first is lower: -9.24% for the first, 4.92% for the second.

First: CC1CCC(NC(=O)c2ccc(CNS(=O)(=O)c3ccc(F)cc3)cc2)CC1 (centres unmarked)
Second: COc1ccc(Cn2c(SCc3ccc(C(=O)NC4CC4)cc3)nc3cccnc32)cc1
The “% Inhibition @ 10 uM” value of the first is lower: -2.72% for the first, 3.46% for the second.

First: Cc1ccc(C(=O)N2CCC(Cc3ccccc3)CC2)cc1S(=O)(=O)N1CCCCC1
Second: CCOCCCNC(=O)C1CCN(S(=O)(=O)N2CCCCC2)CC1
The “% Inhibition @ 10 uM” value of the first is lower: -1.54% for the first, 2.05% for the second.

Compared with O=C(NCCN1CCCC1)c1ccccc1Br, Cc1nnc(N2CCCC(C(=O)NCCN3CCN(C)CC3)C2)c2nn(-c3ccccc3)c(C)c12 (centres unmarked) is higher in “% Inhibition @ 10 uM” value: -1.78% for the first, 4.56% for the second.

Going from COc1ccc(OC)c(C2/C(=C(\O)OCc3ccccc3)C(C)=Nc3nnnn32)c1 (centres unmarked) to CCCO/C(O)=C1\C(C)=Nc2nnnn2C1c1ccccc1OCC (centres unmarked), the “% Inhibition @ 10 uM” value falls from 2.93% to -3.53%.

Compared with O=C(Nc1sc2c(c1C(=O)N1CCCCC1)CCCC2)c1cccs1, O=C(CSc1nc(O)cc(=O)n1C1CCCCC1)N1CCCCC1 is lower in “% Inhibition @ 10 uM” value: 10.9% for the first, 3.62% for the second.

First: N#CC1=C(N)Oc2oc3ccccc3c(=O)c2C1c1ccc(F)cc1 (centres unmarked)
Second: COc1ccc(C2C(C#N)=C(N)Oc3[nH]nc(C)c32)cc1COc1cccc(Cl)c1 (centres unmarked)
The “% Inhibition @ 10 uM” value of the first is lower: -4.67% for the first, 35.9% for the second.

Going from CCOC(=O)c1cc(-c2ccc(F)cc2)n(CC(=O)N2CCn3c2nc2ccccc23)c1C to Cc1oc(-c2ccc(C(=O)N3CCN(C)CC3)cc2)nc1COc1ccccc1, the “% Inhibition @ 10 uM” value rises from 1.5% to 3.96%.

Going from CCN(Cc1ccccc1)Cc1cc(Br)ccc1O to CCCCc1ccc(NC(=O)c2ccccc2C(=O)O)cc1, the “% Inhibition @ 10 uM” value rises from -4.03% to 0.658%.

First: CC(=O)N1N=C2C3CCN(CC3)C2C1c1cccc2ccccc12 (centres unmarked)
Second: COc1ccccc1C1CC(=O)NC(C)=C1C(=O)OCC1CCCCC1 (centres unmarked)
The “% Inhibition @ 10 uM” value of the first is higher: 5.21% for the first, 0.8% for the second.

Compared with CCn1c(SCC(=O)Nc2ccc(OC)cc2OC)nc2c1c(=O)n(C)c(=O)n2C, CCSc1nc2sc3c(c2c(=O)n1CC)CC(C)(C)OC3 is higher in “% Inhibition @ 10 uM” value: 1.03% for the first, 3.32% for the second.

Compared with Cc1ccccc1-c1nc(CSCC(=O)NCc2ccc3c(c2)OCO3)c(C)o1, O=C(CCCn1sc2ccccc2c1=O)NCc1ccc2c(c1)OCO2 is lower in “% Inhibition @ 10 uM” value: 0.689% for the first, -4.68% for the second.

First: Cc1ccc2oc(=O)c3cc(C(=O)NCCc4ccsc4)sc3c2c1
Second: Cc1sc(C(=O)O)cc1-c1ccc(C(=O)N[C@@H](CC(C)C)C(=O)NCC#N)cc1
The “% Inhibition @ 10 uM” value of the first is lower: 2.78% for the first, 2.87% for the second.

First: O=C(NCCNC(=O)c1ccccc1O)c1ccccc1O
Second: CCc1ccccc1NC(=O)c1cccnc1Cl
The “% Inhibition @ 10 uM” value of the first is higher: 4.55% for the first, 2.43% for the second.

Compared with CCSCCOC(=O)C1=C(C)NC(=O)NC1c1ccc(Cl)cc1Cl (centres unmarked), CC1=C(C(=O)OCC(F)(F)F)C(c2ccc(Cl)c(Cl)c2)NC(=O)N1 (centres unmarked) is higher in “% Inhibition @ 10 uM” value: -1.59% for the first, 1.6% for the second.

Going from Cn1nc(CC(=O)O)c2ccccc2c1=O to O=C(O)c1csc(-n2cccc2)n1, the “% Inhibition @ 10 uM” value falls from 0.279% to -8.96%.

Compared with N#C/C(=C/c1cccc(F)c1)c1nc(-c2ccc(Br)cc2)cs1, CC(NC(=O)c1nc[nH]n1)c1ccc(-c2ccccc2)cc1 (centres unmarked) is higher in “% Inhibition @ 10 uM” value: -8.11% for the first, -3.33% for the second.

Going from Cc1ccc2c(c1)c(=O)c1c3n2CCN(CC#N)C3CC1 (centres unmarked) to Cc1ccc(C2C(C#N)=C(N)OC3=C2C(=O)CCC3)c(C)c1 (centres unmarked), the “% Inhibition @ 10 uM” value falls from 0.716% to -5.07%.

Going from COC(=O)c1ccc(C2Oc3ccccc3C3=C2C(c2ccccc2F)n2ncnc2N3)cc1 (centres unmarked) to OC(CO/N=C(/c1ccc(Br)cc1)c1cccnc1)CN1CCN(c2ccccc2)CC1 (centres unmarked), the “% Inhibition @ 10 uM” value rises from -5.19% to 0.986%.

First: CC1=CC(c2ccccc2)NC(S)=N1 (centres unmarked)
Second: CCCCNC1=N/C(=C\c2ccco2)C(=O)N1c1ccccc1
The “% Inhibition @ 10 uM” value of the first is lower: -5.59% for the first, 2.62% for the second.

First: CCN(CC)c1ccc(NC(=O)c2cnn(CC)c2)cc1
Second: CCC(=O)Nc1ccc(NCc2cc(Cl)cc(Cl)c2OC)cc1
The “% Inhibition @ 10 uM” value of the first is lower: -4.43% for the first, -3.26% for the second.

Compared with Cc1ccc(S(N)(=O)=O)c(C)c1-n1cnnn1, CCOC(=O)N1CCN(S(=O)(=O)c2ccc(Br)c(OCC)c2)CC1 is higher in “% Inhibition @ 10 uM” value: -5.53% for the first, -1.51% for the second.

First: c1nc(CCNC2CCCCCCC2)c[nH]1
Second: O=C(O)C1C2C=CC(C2)C1C(=O)NC1CCCCCC1 (centres unmarked)
The “% Inhibition @ 10 uM” value of the first is higher: 4.75% for the first, -1.88% for the second.

First: O=C(NC1CCSC1=O)c1ccc(Cl)cc1Cl (centres unmarked)
Second: COCCCNC(=O)CN(C)S(=O)(=O)c1ccc(Cl)cc1
The “% Inhibition @ 10 uM” value of the first is higher: -1.22% for the first, -2.29% for the second.

Going from COc1cc(/C=C/c2nc(C#N)c(NCc3ccco3)o2)cc(OC)c1OC to CCC(C)S(=O)(=O)c1oc(-c2cccs2)nc1S(=O)(=O)c1ccc(F)cc1 (centres unmarked), the “% Inhibition @ 10 uM” value falls from -2.57% to -2.99%.

Compared with O=C(CC(C(=O)O)C1CCCO1)NC1CCCCC1 (centres unmarked), CC(C)(C)NS(=O)(=O)c1ccc(OCC(=O)Nc2ccc3c(c2)OCCO3)cc1 is lower in “% Inhibition @ 10 uM” value: 4.95% for the first, -2.09% for the second.

First: Oc1ncnc2onc(-c3ccc(F)cc3)c12
Second: CCOc1ccc(CNc2ccc(F)c(Cl)c2)cc1
The “% Inhibition @ 10 uM” value of the first is lower: 3.54% for the first, 4.55% for the second.

O=C1/C(=C/c2cccs2)CS/C1=C/c1cccs1 was tested, and the “% Inhibition @ 10 uM” value was -3.21%.
